Sequences with one replicate were seen in a single cluster, so their values are uncertain.
System: ATP
Assay: switch fluorescence ratio, 500 uM ATP over buffer (Cy3 cluster intensity, sum of 5 cycles each) (fold (ratio)); higher = stronger signal-on switching upon ATP binding; sequences stand for … in TCGTCGGCAGCGTCAGATGTGTATAAGAGACAGTTTTTTTTTTTTTTTTTTTTTTTTT…TC
Conditions: aptamer strand: ATP DNA aptamer (quencher-CACCTGGGGGAGTATTGCGGAGGAAGG + anchor), 100 nM annealed; ATP concentration: 500 uM; one replicate
Outline: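 Switching-strand clusters labelled with Cy3 on a modified Illumina MiSeq flow-cell were annealed to 100 nM quencher-labelled ATP aptamer, imaged in selection buffer, and re-imaged after 15 min with 500 uM ATP at 22 °C. This was done over five cycles with NaOH stripping and re-annealing in between. The fluorescence ratio is summed target-cycle over summed buffer-cycle Cy3 intensity per cluster, averaged per switch-domain sequence, excluding clusters outside 100-1000 RFU.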
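Note: ATP exposure 15 min at 22 °C before imaging.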

Sequence	switch fluorescence ratio
AGAACACAA	1
GGGGTCTGTA	0.971
GTGGCCTGCT	0.995
ACGCTAACGG	1.17
GGAATGTT	0.992
CGTCCTGACT	1.05
GCTGTGCGTG	1.13
TCTAGTATTC	0.988
GCCTATACAT	0.98
ACATAGATAA	1.03
TAGATTTCCA	0.953
TAGAAGGGTG	1.01
ATGATCTGGG	0.947
TGACCGTACT	1.2
TGATATAATG	1.03
GCAATTTGGC	1.07
TTTCTGGACA	0.993
TCGGCTTTCA	0.995
AAAGGTTTAA	0.981
AAAAGCATTC	1.12
TCTCAAGGTT	0.993
CTTAGTCCCG	0.996
AATTTAATCC	1.05
CTCGTTTGTC	1.05
ATTCCATCGG	0.995
CGTAATGGCT	1.02

Sequence	switch fluorescence ratio
GGGCCTTATA	0.979
GCGCAGAGCT	1.1
GCTGGCGACA	1.02
GCTAATATGT	0.972
CTATACAGTC	0.994
TTGCCGTAGG	0.995
AGGGTTACCA	1.07
GATTCTTTGT	0.971
TCCCAGGTCA	1.82
ATGAGGGCAT	0.984
ACAGCTTGG	1
ACTTTTGAAG	0.97
GTTGGGTAAG	0.952
CAACAGGTT	1.06
TTTTTGCTCC	1.07
CTTCACCGTA	1
GCCTATCCTG	0.979
TTAGCGGGTA	1.03
TGGGCGGAGG	0.962
GTACCAGGAA	1.05
TAGAAAAGCG	1
GGCGTACTAG	1.03
AACATTCGGC	1.01
TCGTGAGGGA	0.949
AACTGACTAT	1.09
TAGTCAAAGA	1.01

Sequence	switch fluorescence ratio
GGGAATTGAC	1.02
TGAATTAGG	0.952
CGTTTGTATG	1.02
ACTGGCTG	1.05
TAGCGTTTG	0.985
ATCATTTTCT	0.998
TTGCGGGTTA	1.02
TAAGCTTCGG	1.06
GACTAAGGG	0.995
AGTCCCTCTA	0.988
GCCACCTCAA	1.46
CGTGAGTTTT	1.03
TTGGAGGG	1.04
ACTCTCGCTT	2.39
GCTTGCTAAC	0.989
ACCGATTCTG	1.02
GGCCCCCGAA	1.02
TCTGTTTAGT	0.982
TGGAGGTTA	0.983
TTAAATTCAC	1.07
GGATGAGACT	0.979
TCGTGGGTAG	1.04
GAGTTCCTTT	0.998
ATGGTTCGAT	0.967
TAGTTCACTA	1
CTGGACGAAT	1.03

Sequence	switch fluorescence ratio
TTATTCTAGC	0.981
GTGTGGCGGT	1.2
TATCTGATTG	0.962
AGTGGGTATC	1.02
TTGAGGCTTC	1.16
ATGATCACGG	1.04
CCAATAAGTT	0.963
CAGTTAATC	1.02
CCACTTCATC	1.12
TGCCGTAGCA	1.05
GAAATTGAAT	1.02
CATGGGCTAA	1.02
AGCCGACGGG	1.03
CCACTGCTGA	1.57
TATCCACAGA	1.01
CTTGGAGGCT	1
TAGTCTGACA	0.991
GCTATCTTTG	1.02
CACCCCGATT	1.06
ACCGACGAGT	1.52
ATACAATTCG	0.972
TAAATATAAG	1.04
CTTACGGAAA	1.02
CAATTAGTTT	0.969
CAGTCAAAGA	1.02
CTAGTGGTAC	1.21

Sequence	switch fluorescence ratio
ACTCAGTGTG	1.11
GAAGCTGCTG	0.975
GCCGTAGAGC	0.985
TGAATACGGA	1.55
CCATACGGAT	1.04
GGCATCCGTA	0.988
TCGCGGATTT	0.986
CGATCGTGGC	1.07
CATGGCCCCA	1.02
AAAGTTGTA	0.956
GGGGACTT	0.987
GAGTCCATCC	1
TGTTCGAG	1.01
AATAGGAAAA	0.99
GGACCCTATA	1.1
AGCTCTGCGG	0.955
GCGAGATGCA	0.972
TGAAGATCTA	1.02
GGCAGTAGAG	0.974
ACGTTGAGA	1.01
AGTGCGTCCA	0.969
TTAAGCGCTT	0.985
GCGTTCGGTG	1.02
GGTGACAGGT	1.01
TCCCGTTTGT	1.01
CTAAAGCAAA	2.38

Sequence	switch fluorescence ratio
AACGGACTAA	1.26
TCCTTTGGGT	1.06
GGTTCCAGTG	0.995
AGTATCTTAG	1.01
TAGTTTAAAC	1.01
AAGGGTCCA	0.974
CACAAGATCG	1.01
ATTTGAATAT	1.01
AAACCATTGC	1.03
GCTATGACTG	0.967
TTGCGTGAGA	1.05
CCTTAGGCTA	1.4
AAAAGTCTCT	1
AGCTCGAGAC	1.03
AGGCCATTCG	1.01
AGAAGGAGTG	0.999
TCGGACCTC	1.21
CGATGATGCG	1.02
TGGCAACTTG	1.06
TACTACACAT	1.32
AGGCATGAAT	1.06
CTCCAACGGT	1.07
CTTGTATGA	0.968
TAGTAACCCT	1.06
GTGCTTACCT	1.14
GTTTCGGTAT	0.982

Sequence	switch fluorescence ratio
TTTGAGCCGC	1.03
CTTTTGTGCG	0.993
CTTCTGACCG	1.35
ATAAAATTAA	0.977
ACGATCCTGG	1.38
TTATTGCCGT	1.01
CTGGAAAAAT	0.986
CCCTAAGGCT	1
AATAACGAGT	0.988
GCTTATGCTA	1.02
GGTCTTTATT	0.994
TACTAGGCA	1.01
TTATCACAGC	0.955
CTCGACACGA	1.11
TCATACATAG	0.997
AGGCCGGTCG	1.04
AGCACACTTG	0.987
TGTTTGGCAA	1.01
CGGTTGCTAA	1.25
CTGCCACAGA	1.03
CGACAATGGG	0.97
GATGATCGGC	0.955
GCGGCGCGG	1.03
TAGTTCGTGT	0.983
GCCCTCTGCG	1.12
TGTTTGGTCT	1.02

Sequence	switch fluorescence ratio
TTGGAGGGA	1.03
CTTTTTTCCC	0.962
TAAGTCTCAG	0.992
TTTCAGCTGC	1.02
TGACATGTGT	0.982
AGCCGGTGGT	1.04
TGACTGCTTG	1
CGGAAATCAA	1.04
TGATTCCAGG	1.17
GGTGCTGCGG	1.01
CTAGTCAAGC	1.05
AAACGGCGCG	1.04
AGCGTAAT	1.07
CACGAGGTGG	1.16
ACAAAACCGT	1.14
ACAATAGTT	1.03
TTCAGTCTTT	1.05
GATATAGACC	1.14
ATGCTCGGGT	1.02

Reference: the supplement of paper PMC10126150
